# Source: the supplement of paper PMC3334620
# Over roughly 33,000 sequences, “E-score (-0.5 to 0.5)” has its median near -0.016; the highest 2% begin near 0.32. The list shows a part of the results.
# Target: T1, Stp1 (UniProt B3LFK1)
# T1 sequence: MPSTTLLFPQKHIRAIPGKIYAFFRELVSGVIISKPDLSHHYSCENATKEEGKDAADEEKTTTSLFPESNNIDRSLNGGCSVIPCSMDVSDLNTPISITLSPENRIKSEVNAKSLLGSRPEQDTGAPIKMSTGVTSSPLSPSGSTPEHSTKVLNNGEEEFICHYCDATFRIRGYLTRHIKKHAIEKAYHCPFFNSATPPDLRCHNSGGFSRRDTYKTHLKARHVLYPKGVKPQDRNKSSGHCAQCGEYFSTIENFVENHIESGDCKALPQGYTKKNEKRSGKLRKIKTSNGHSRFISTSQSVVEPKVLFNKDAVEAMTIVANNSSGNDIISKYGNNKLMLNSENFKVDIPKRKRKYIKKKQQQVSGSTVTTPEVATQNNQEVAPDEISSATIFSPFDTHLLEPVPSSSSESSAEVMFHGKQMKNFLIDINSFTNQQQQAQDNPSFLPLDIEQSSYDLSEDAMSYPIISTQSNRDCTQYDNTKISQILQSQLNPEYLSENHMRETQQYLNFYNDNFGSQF
# Assay: PBM E-score (8-mer binding enrichment) (E-score (-0.5 to 0.5)); higher = stronger / more preferred TF binding; most listed sequences are background and not binding sites
# Settings: protein concentration: 200 nM; construct: GST-full length
# How it was run: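 Masliner-normalised scans of fluorescent anti-GST signal were the basis for scoring. That signal came from GST-tagged yeast transcription factors applied at about 100-200 nM to double-stranded universal all-10-mer Agilent arrays on fresh or once-stripped slides. Each ungapped eight-base word, pooled with its reverse complement, received an E-score from the Universal PBM Analysis Suite.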
row,Sequence,PBM E-score
1,AGCTTAGA,-0.0573
2,AGGTGATA,-0.0546
3,CGTCAACA,0.0765
4,CAAGAGTG,-0.227
5,CGATGGTC,-0.103
6,ATCAATCG,0.156
7,CCGGGCAC,0.0281
8,AGGCACCC,-0.00944
9,CAGCAACA,0.164
10,TATTTACA,-0.0816
11,CTCCCCCC,-0.232
12,ATCGACTG,-0.12
13,AGCTCTTC,-0.131
14,GAAGTCAC,-0.226
15,CTCTCAAG,-0.191
16,ATTGTGCA,0.162
17,CATAATGA,-0.0173
18,GGGCCCGA,-0.0056
19,CCTTGTAG,0.0177
20,ATTCGGAG,-0.0999
21,CGCGGCCG,0.321
22,GTGCTTCA,0.0475
23,ACAGTTCC,-0.00302
24,AAGACAAT,0.172

row,Sequence,PBM E-score
1,CCTTCTAC,-0.0931
2,AATGTACG,-0.0657
3,AGTATAGA,0.13
4,CGGCGGAC,0.0528
5,GGGAAGCA,-0.192
6,ACACTGGC,-0.0941
7,CGCCAGCC,0.00306
8,ACGCCCCA,0.222
9,CTTCTTGC,0.117
10,CGTTCCAG,-0.176
11,TACAGAGA,-0.145
12,GACAAACC,-0.0886
13,CAAAAAAC,0.168
14,ACAATAAG,0.13
15,GCCCATTA,-0.0278
16,ATCTCGGC,-0.0787
17,AATGCCCA,0.119
18,GCAACTGC,0.153
19,CCAGAGAA,-0.0224
20,ACTTGGGG,-0.0517
21,CCTCTCCA,-0.178
22,CAGAATGC,0.0355
23,AGCCGGTC,-0.156
24,ACACTATC,0.00314

row,Sequence,PBM E-score
1,GACGACTA,-0.148
2,TCACACCA,0.0916
3,GCTGTTTA,0.0828
4,GATCCACA,0.00706
5,AAATTCCG,0.126
6,TGCCGGAA,0.0977
7,AGTGATCC,-0.19
8,TAAACTAA,0.193
9,CGAAGAAA,0.115
10,CATAATTC,0.079
11,ACGAGTCA,-0.168
12,AAATGTAC,0.0049
13,GCCCACGC,-0.129
14,CGTCTTCA,-0.036
15,ACGGGTGA,-0.0471
16,ATAGGCTC,-0.0265
17,CCAAGAGC,0.0254
18,CCGAAACG,-0.111
19,CCCCAGTA,-0.265
20,GTCTTAAC,0.0462
21,CAATTTAC,0.125
22,CCGGGAGA,-0.264
23,CCGTGGTC,-0.0212
24,GGAAGCCA,-0.246

row,Sequence,PBM E-score
1,CCGCACCA,0.237
2,CAGATAGA,-0.14
3,CCGAGCAA,-0.0344
4,GATATGCC,0.068
5,CGAGAACA,-0.0718
6,CGTAGTGC,0.0359
7,CGTGTTGA,-0.0786
8,CTTAACGA,0.0551
9,AGCTATCG,-0.147
10,AGTTCGTG,0.0175
11,CGTTGCTA,-0.0508
12,AGCTCACT,-0.189
13,CCAGCCAA,-0.114
14,ACAAAGAG,0.00199
15,CAGTCGGC,0.0617
16,ATCTACGG,0.195
17,CGGATACG,0.144
18,GTCAGGCA,-0.162
19,ACTACATG,-0.0514
20,ATTTCATA,-0.00569
21,CGCGGCAA,0.424
22,CCTCGTAG,0.092
